{"source": "PubChem BioAssay AID463173", "about": "(ICCB-Longwood Screening Facility, Harvard Medical School, 2010)", "note": "About 4,300 (8.3%) of roughly 52,000 compounds were called active. Rule as the data show it: active = survival mostly below about 52% (no sharp cut-off); inactive = mostly above about 56%. The list shows a part of the results.", "data": [{"tested_on": "DeltatarO mutant", "experiment": "growth inhibition of S. aureus wild type versus tarO mutant, primary screen, teichoic acid synthesis inhibitors, RN4220, OD600 (AID 463173)", "conditions": "OD600, 18 h, stronger effect = lower value, screened at 18.75 µg/mL (by protocol)", "values": [{"molecule": "Cc1ccc(-c2nc3sc(CCNC(=O)c4ccc(F)c(F)c4)c(C)n3n2)cc1", "survival": "inactive: 76%"}, {"molecule": "Cc1ccc(CNC(=O)CCCCCn2c(=O)c3sccc3n(CC(=O)N3CCCCC3C)c2=O)cc1", "note": "(stereo not drawn)", "survival": "active: 48%"}, {"molecule": "O=C(CCCCCn1c(=O)[nH]c2ccccc2c1=O)N1CCN(c2cccc(C(F)(F)F)c2)CC1", "survival": "inactive: 84%"}, {"molecule": "O=C(C1CCN(S(=O)(=O)c2cccs2)CC1)N1CCN(c2ccccc2F)CC1", "survival": "inactive: 145%"}, {"molecule": "Cc1cc(Nc2cc(Cl)ccc2C)n2nc(-c3ccccc3)nc2n1", "survival": "inactive: 49%"}, {"molecule": "CC(=O)c1cccc(NC(=O)Cn2ccn3nc(-c4ccccc4)cc3c2=O)c1", "survival": "inactive: 83%"}, {"molecule": "Cc1c(CC(=O)NCCc2ccccc2)c(=O)oc2c(C)c3occ(C(C)(C)C)c3cc12", "survival": "inactive: 62%"}, {"molecule": "O=C(COc1ccccc1-c1nc(-c2ccccc2)no1)Nc1ccc([N+](=O)[O-])cc1", "survival": "active: 44%"}, {"molecule": "Cc1cc(C)c2c(NC(=O)c3ccccc3Cl)c(C(=O)NCc3ccc(Cl)cc3)sc2n1", "survival": "inactive: 70%"}, {"molecule": "Cc1ccc(CN(Cc2cccn2-c2nnc(N3CCCC3=O)s2)C(=O)Nc2ccccc2Cl)cc1", "survival": "inactive: 104%"}, {"molecule": "Cc1nc2c(-c3ccc(F)cc3)c(C)nn2c(C)c1CCC(=O)NCc1ccc(F)cc1", "survival": "inactive: 78%"}, {"molecule": "COc1ccc(OCCCn2c(C3CC(=O)N(c4ccc(F)cc4)C3)nc3ccccc32)cc1", "note": "(stereo not drawn)", "survival": "inactive: 66%"}, {"molecule": "CCOC(=O)c1c(C)[nH]c(CCC(=O)NCc2ccc(OC)cc2OC)c1C", "survival": "inactive: 79%"}, {"molecule": "CC1CCCCN1C(=O)Cn1nnc2c(cnn2-c2ccccc2)c1=O", "note": "(stereo not drawn)", "survival": "inactive: 79%"}, {"molecule": "CC(=O)Nc1cccc(NC(=O)CSc2nccn2Cc2ccccc2)c1", "survival": "inactive: 91%"}, {"molecule": "Cc1ccccc1-c1noc(-c2ccc(NCc3cccnc3)c([N+](=O)[O-])c2)n1", "survival": "inactive: 98%"}, {"molecule": "CC1=C(c2ccc(C(C)C)cc2)S(=O)(=O)N=C1N1CCC(C(=O)NCc2ccc(C)o2)CC1", "survival": "inactive: 67%"}, {"molecule": "CCOc1cccc2sc(N3CCN(C(=O)c4ccco4)CC3)nc12", "survival": "inactive: 76%"}, {"molecule": "Cn1c(CN2CCOCC2)nc2cc(NC(=O)c3ccccc3[N+](=O)[O-])ccc21", "survival": "inactive: 100%"}, {"molecule": "Cc1ccc(NC(=O)CN2C(=O)c3ccccc3C2=O)c(C)c1", "survival": "inactive: 99%"}, {"molecule": "COc1cc(OC)c(NC(=O)c2ccc(-n3cnc4cccnc43)cc2)cc1Cl", "survival": "active: 52%"}, {"molecule": "CCOC(=O)CC(NC(=O)Cn1nnc(-c2ccc(Cl)cc2)n1)c1ccc(OC)cc1", "note": "(stereo not drawn)", "survival": "inactive: 86%"}, {"molecule": "O=C(NCCCN1CCN(c2ccc(F)cc2)CC1)Nc1ccccc1Cl", "survival": "inactive: 118%"}, {"molecule": "COc1ccc(NC(=O)c2nnn(-c3ccc(C(C)C)cc3)c2C)c(OC)c1", "survival": "inactive: 87%"}, {"molecule": "CC(C)CCNC(=O)c1cc(-c2cccnc2)nc2ccc(S(=O)(=O)N3CCC(C)CC3)cc12", "survival": "inactive: 94%"}, {"molecule": "O=C(CSc1nc2c([nH]c3ccccc32)c(=O)n1-c1ccccc1)N1CCCCC1", "survival": "inactive: 73%"}, {"molecule": "COc1ccc(OC)c(-c2noc(N3CCN(c4cccc(C(F)(F)F)c4)CC3)n2)c1", "survival": "inactive: 124%"}, {"molecule": "CCOc1ccc(-c2cc(C(=O)NCCc3ccc(C)cc3)c3ccccc3n2)cc1", "survival": "active: 52%"}, {"molecule": "Cc1cccc(-n2c3nc(=O)[nH]c(=O)c-3cc3ccc(Cl)cc32)c1C", "survival": "inactive: 86%"}, {"molecule": "O=C(CC1(O)C(=O)Nc2ccccc21)c1ccccc1O", "note": "(stereo not drawn)", "survival": "inactive: 92%"}, {"molecule": "CCC(=O)Oc1c(Sc2ccc(C)cc2)c(C)nn1-c1ccccc1", "survival": "inactive: 71%"}, {"molecule": "Cc1cc(-c2ccccc2)nc2cc(C(N)=O)nn12", "survival": "inactive: 71%"}, {"molecule": "COc1ccc(CNS(=O)(=O)c2cc3c(cc2Cl)NC(=O)CO3)cc1", "survival": "inactive: 89%"}, {"molecule": "O=C(c1cc(-c2ccc(Br)cc2)n[nH]1)N1CCN(S(=O)(=O)c2ccc(Cl)s2)CC1", "survival": "inactive: 87%"}, {"molecule": "CC(C)CC(=O)Nc1ccc2nc(SCC(=O)N3CCOCC3)sc2c1", "survival": "inactive: 99%"}, {"molecule": "NCC(O)CN(c1ccccc1)c1ccccc1", "note": "(stereo not drawn)", "survival": "inactive: 79%"}, {"molecule": "CCOc1ccccc1C(=O)N1CCc2cc(OC)c(OC)cc2C1COc1ccc(OC)cc1", "note": "(stereo not drawn)", "survival": "inactive: 67%"}, {"molecule": "Cc1ccc(-c2nc3cccc(C)n3c2Nc2ccc3c(c2)OCO3)o1", "survival": "inactive: 92%"}, {"molecule": "COc1cccc(CNC(=O)Cn2ncn3c(cc4ccccc43)c2=O)c1", "survival": "inactive: 72%"}, {"molecule": "Cc1nn(-c2ccccc2)c(OC(=O)c2ccc(Cl)cc2)c1S(=O)(=O)c1ccccc1", "survival": "inactive: 79%"}, {"molecule": "Cn1c(=O)c2c(nc(N3CCOCC3)n2Cc2ccccc2F)n(C)c1=O", "survival": "inactive: 71%"}, {"molecule": "O=C(CSc1nc2ncccc2o1)Nc1ccc(Cl)cc1F", "survival": "inactive: 70%"}, {"molecule": "O=C(Nc1ccccc1C(F)(F)F)C1CCN(S(=O)(=O)c2ccccc2)CC1", "survival": "active: 49%"}, {"molecule": "CCNc1nc2c(c(=O)n(C)c(=O)n2C)n1CC", "survival": "inactive: 98%"}, {"molecule": "CCC(=O)Nc1nnc(SCCOC)s1", "survival": "inactive: 85%"}, {"molecule": "CCN(CC)c1ccc(-n2nc3cc(C)c(NC(C)=O)cc3n2)cc1", "survival": "inactive: 92%"}, {"molecule": "COc1ccc(NC(=O)CSc2nc3ccccc3n2CC(=O)N(C)C2CCCCC2)cc1", "survival": "inactive: 126%"}, {"molecule": "COc1ccc(NC(=O)c2cc(S(=O)(=O)N3CCCC(C)C3)cn2C)c(OC)c1", "note": "(stereo not drawn)", "survival": "inactive: 87%"}, {"molecule": "Cc1cc(Cl)ccc1NS(=O)(=O)c1c(C(=O)N2CCCCCC2)c(C)n(C)c1C", "survival": "inactive: 91%"}, {"molecule": "COc1cc(C2c3c(-c4cc(C)ccc4O)n[nH]c3C(=O)N2Cc2ccco2)cc(OC)c1OC", "note": "(stereo not drawn)", "survival": "inactive: 66%"}, {"molecule": "COC(=O)CSc1nc2sc3c(c2c(=O)n1-c1ccccc1)C(C)CCC3", "note": "(stereo not drawn)", "survival": "inactive: 62%"}, {"molecule": "CC(C)Oc1ccc(C(=O)Nc2nnc3n2CCS3)cc1", "survival": "inactive: 124%"}, {"molecule": "O=C(Cn1cc(SCc2ccc(Cl)cc2)c2ccccc21)N1CCOCC1", "survival": "inactive: 79%"}, {"molecule": "CCCc1nn2c(=O)cc(COC(=O)c3cccc(NC(=O)c4ccc(OCC)cc4)c3)nc2s1", "survival": "active: 0%"}, {"molecule": "O=C(CSc1nc(O)cc(=O)[nH]1)Nc1ccccc1", "survival": "inactive: 82%"}, {"molecule": "CC(NS(=O)(=O)c1ccc2c(c1)CCN2C(=O)CCCC(=O)O)c1ccccc1", "note": "(stereo not drawn)", "survival": "inactive: 86%"}, {"molecule": "N#Cc1nc(/C=C/c2ccc(F)cc2)oc1N1CCCCCC1", "survival": "inactive: 59%"}, {"molecule": "CCc1c(C)sc(NC(=O)c2cc3nc(-c4ccc(OC)cc4)cc(C(F)(F)F)n3n2)c1C(=O)OC", "survival": "inactive: 71%"}]}]}
